{
  "source": "PubChem BioAssay AID1347165",
  "about": "(National Center for Advancing Translational Sciences (NCATS), 2019)",
  "note": "The campaign covered roughly 220,000 compounds. About 5,700 (2.6%) were called active. The inconclusive results got no clear call from the source; some entries with a clear call stand among them for comparison. Calls come from the whole dose curve; as a rule, active = well fitted inhibition curve with a large enough effect; inconclusive = small, poorly fitted or top-dose-only effect; inactive = no such curve, though single readings can be large or run the other way. A potency beside an inconclusive call is a rough fit, not a confirmed value. Potency is the fitted concentration of half-maximal effect; tags give direction and shape of the fitted curve.",
  "data": [
    {"target": "Lysine-specific demethylase 5B (Homo sapiens) (UniProt Q9UGL1)", "sequence (Q9UGL1 whole entry, looked up)": "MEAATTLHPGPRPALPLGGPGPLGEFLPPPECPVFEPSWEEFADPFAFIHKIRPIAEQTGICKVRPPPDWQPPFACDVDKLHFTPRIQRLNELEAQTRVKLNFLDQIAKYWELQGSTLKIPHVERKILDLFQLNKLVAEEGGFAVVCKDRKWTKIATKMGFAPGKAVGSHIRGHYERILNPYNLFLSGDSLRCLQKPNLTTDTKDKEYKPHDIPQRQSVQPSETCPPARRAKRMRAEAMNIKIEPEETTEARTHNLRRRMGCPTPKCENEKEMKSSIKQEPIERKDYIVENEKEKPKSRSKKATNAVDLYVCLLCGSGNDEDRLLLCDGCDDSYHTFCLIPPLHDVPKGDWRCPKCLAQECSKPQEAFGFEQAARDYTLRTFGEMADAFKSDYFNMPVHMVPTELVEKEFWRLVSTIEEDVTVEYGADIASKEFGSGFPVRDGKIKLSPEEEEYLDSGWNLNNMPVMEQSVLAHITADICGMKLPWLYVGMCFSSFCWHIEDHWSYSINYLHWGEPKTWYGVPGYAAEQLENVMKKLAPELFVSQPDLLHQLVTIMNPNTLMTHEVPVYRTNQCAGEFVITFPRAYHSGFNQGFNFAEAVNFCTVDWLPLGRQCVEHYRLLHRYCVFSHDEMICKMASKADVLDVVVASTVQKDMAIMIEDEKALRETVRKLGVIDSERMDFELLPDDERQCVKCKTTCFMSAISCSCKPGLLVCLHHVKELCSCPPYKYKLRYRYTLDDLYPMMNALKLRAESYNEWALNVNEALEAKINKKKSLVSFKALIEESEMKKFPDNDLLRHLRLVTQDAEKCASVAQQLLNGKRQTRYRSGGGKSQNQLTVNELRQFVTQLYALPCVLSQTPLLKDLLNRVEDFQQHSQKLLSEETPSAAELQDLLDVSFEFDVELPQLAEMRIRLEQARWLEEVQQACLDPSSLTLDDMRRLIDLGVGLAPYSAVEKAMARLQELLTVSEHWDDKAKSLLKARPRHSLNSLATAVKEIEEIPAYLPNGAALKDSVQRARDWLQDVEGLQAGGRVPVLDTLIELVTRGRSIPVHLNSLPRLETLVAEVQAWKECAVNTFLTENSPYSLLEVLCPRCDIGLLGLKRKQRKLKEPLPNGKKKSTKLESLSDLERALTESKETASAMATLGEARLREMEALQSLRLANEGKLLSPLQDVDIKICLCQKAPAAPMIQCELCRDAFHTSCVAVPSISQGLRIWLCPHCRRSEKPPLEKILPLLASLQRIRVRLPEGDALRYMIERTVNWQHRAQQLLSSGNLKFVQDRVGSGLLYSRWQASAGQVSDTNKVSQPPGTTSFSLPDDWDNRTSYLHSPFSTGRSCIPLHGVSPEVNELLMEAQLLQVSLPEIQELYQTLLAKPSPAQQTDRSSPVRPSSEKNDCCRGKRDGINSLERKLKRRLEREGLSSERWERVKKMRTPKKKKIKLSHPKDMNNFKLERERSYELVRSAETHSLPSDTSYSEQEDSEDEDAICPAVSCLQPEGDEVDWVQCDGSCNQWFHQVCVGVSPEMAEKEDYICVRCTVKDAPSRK", "test": "Primary screen for KDM5B Histone Demethylases FDH-coupled qHTS; note: nearly all actives have a fitted effect of over 70% in size; for activity change, negative = inhibition: 0% is about no effect", "details": "FDH-coupled NADH fluorescence (FDH is formaldehyde dehydrogenase); activity change, negative = inhibition: at 57.7 µM (top of the series) unless noted", "how_it_was_run": "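Coupled FDH/NAD⁺ fluorescence readout. KDM5BΔAP 200 nM final; compound titration, 10 min RT preincubation; substrate mix 12.5 µM H3K4me3, 25 µM 2-OG, 50 µM Fe(II), 100 µM ascorbate, 0.25 mM NAD⁺, 0.25 U/mL FDH; ΔRFU over 30 min.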", "values": [
      {"smiles": "COc1ccc(-c2nnc3ccc(Oc4ccc(NC(C)=O)cc4)nn23)cc1", "Potency": "inconclusive: 25.1 µM [inhibitor, single point]"},
      {"smiles": "Cc1oc2cc(OCC(=O)c3ccccc3)ccc2c(=O)c1-c1ccccc1", "activity change, negative = inhibition": "inactive: -7.64%"},
      {"smiles": "Cc1ccc(CN(C)C(=O)Cc2n[nH]c(=O)c3ccccc23)c(C)c1", "activity change, negative = inhibition": "inactive: -5.97%"},
      {"smiles": "COc1nc(C(=O)N2CCC(NC(=O)C3CC3)CC2)cc2ccccc12", "activity change, negative = inhibition": "inactive: 18.7%"},
      {"smiles": "COCCNc1ncc(-c2ccc(N3CCOCC3)cc2)c2c1OCC2", "Potency": "inconclusive: 31.6 µM [inhibitor, single point]"},
      {"smiles": "O=C(NCc1cccnc1)c1nc(-c2cccc(C(F)(F)F)c2)c2cnccn12", "Potency": "active: 28.2 µM"},
      {"smiles": "Cc1ccccc1C(=O)Nc1ccc2oc(-c3ccccc3F)nc2c1", "Potency": "inconclusive: 31.6 µM [inhibitor, partial curve, poor fit]"},
      {"smiles": "CCC(C(=O)NCCc1ccc(SC)cc1)n1nc(C)c2sc3ccccc3c2c1=O", "note": "(stereo not drawn)", "Potency": "inconclusive: 31.6 µM [inhibitor, single point]"},
      {"smiles": "CCOC(=O)c1cc(-c2ccccc2)n(-c2cccc(C(=O)Nc3ccc(OC)cc3)c2)c1C", "Potency": "inconclusive: 8.91 µM [inhibitor, partial curve, poor fit]"},
      {"smiles": "Cc1cc(Cn2cc3c4c(cccc42)[C@H](CC(C)C)N[C@H](C(=O)NCCN(C)C)C3)no1", "Potency": "inconclusive: 25.1 µM [inhibitor, partial curve]"},
      {"smiles": "COc1ccc(N2CCN(C(=O)c3cn(CC(C)C)c(=O)c4c3c3ccccc3n4C)CC2)cc1", "Potency": "inconclusive: 35.5 µM [inhibitor, single point]"},
      {"smiles": "CCOc1cccc(CNC(=O)c2noc(-c3ccc4c(c3)OCO4)n2)c1", "Potency": "inconclusive: 31.6 µM [inhibitor, single point]"},
      {"smiles": "CCOC(=O)COc1ccc(Br)cc1/C=C1\\NC(=O)NC1=O", "activity change, negative = inhibition": "inactive: -16.6%"},
      {"smiles": "Cc1cccc(C)c1NC(=O)c1oc2ccc3c(c2c1C)C(=O)CC(C)(C)O3", "Potency": "inconclusive: 31.6 µM [inhibitor, partial curve, poor fit]"},
      {"smiles": "Cc1cccn2c(=O)c(C(=O)NCCCN3CCCCC3C)c(O)nc12", "note": "(stereo not drawn)", "Potency": "inconclusive: 31.6 µM [inhibitor, partial curve, poor fit]"},
      {"smiles": "Cc1csc(SCC(=O)N[C@H]2[C@H]3CCO[C@H]3[C@@H]2NS(C)(=O)=O)n1", "Potency": "inconclusive: 11.2 µM [inhibitor, partial curve]"},
      {"smiles": "O=C(c1cnc2c(O)cccn2c1=O)N1CCC2(CC1)OCCCC2O", "note": "(stereo not drawn)", "Potency": "active: 31.6 µM"},
      {"smiles": "COc1ccc2[nH]c(=O)c(CCC(=O)N3CCN(c4ccccn4)CC3)cc2c1", "Potency": "inconclusive: 28.2 µM [inhibitor, single point]"}
    ]}
  ]
}
